This is an account of results in the RNAGym collection of RNA variant scans (doi:10.1093/nar/gkz1192).

Sequences and labels used below:
B1: CPEB3 Ribozyme (parent)
chain: UAACAGGGGGCCACAGCAGAAGCGUUCACGUCGCAGCCCCUGUCAGAUUCUGGUGAAUCUGCGAAUUCUGCUGUAUAUCUC

The source gives no read counts; variants with many changes may rest on few reads.

This data set covers variants of B1. Kind of data set: self-cleavage, relative activity (ratio to wild type); higher = more cleavage; in vitro, sequencing. Summed up: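 After error-prone PCR and barcoding, CPEB3 ribozyme mutant libraries were transcribed with T7 RNA polymerase at 37°C for 5 hours, then given 15 min with DNase I before an EDTA stop, and they cleaved during both steps. Reverse transcription with template switching preceded Illumina sequencing. Relative activity divides a variant's cleaved/total read fraction by the unmutated ribozyme's. At least 5 reads were required per variant, and three batches were averaged.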
For the variant U31A A35G A64C U72G, the self-cleavage amounted to 0.23.
As to U31A A35G G63A U69C U76A, the self-cleavage worked out at 0.89.
With G30A C32A A45U, the self-cleavage was found to be 0.12.
For C29U C50G U60G U78A, the self-cleavage is 0.13.
Consider G30A C34G U72C A75G, for which the self-cleavage is 0.13.
As to U31A A35C U67C A77G, the self-cleavage stood at 0.12.
The result for G30A U76C U80A reads 0.19; that for G30U U41A U48C G55A, 0.18.
Consider G30A C38A G61A A65U, for which the self-cleavage was 0.1.
C29U G33C U41A G53U A75G: the self-cleavage amounted to 0.05.
Take G30U A57U C59A: the self-cleavage was determined as 0.05.
For the variant C29U U60C U66C, the self-cleavage came out at 0.12.
The same measure for C29U A56U U69C: 0.38; for G30U U41C A45U U54G C62U A64U: 0.1; for C29U A47U U48C U54C A56G U60A A64G: 0.11.
In the case of G30A C34A U41C, the self-cleavage was determined as 0.26.
As to G30A U54G A56U, the self-cleavage was 0.14.
For C29U U31A U67A, the self-cleavage stood at 0.11.
For G30U A35U C39G U43C G53C U78C, the self-cleavage was 0.05.
The result for U31A A45G U51C A64G reads 0.16; that for G30U C40A C44A A45C A65G U72C, 0.07.
In the case of G30A U41C U49C U78C, the self-cleavage stood at 0.07.
On to C29U C32A U43C A45G U76G, for which the self-cleavage came out at 0.05.
Take U31A A35C U72A: the self-cleavage is 0.45.
In the case of C29U U41A A75G A77U, the self-cleavage was found to be 0.43.
The same measure for G30U A45G A75G: 0.04.
As for U31A A35G U51A, the self-cleavage worked out at 1.27.
In the case of G30A C40U U49C U67C, the self-cleavage came to 0.09.
The same measure for C29U U58C U67A A75U: 0.09; for G30C A56G A75G A77G: 0.06; for G30A A45U U48G A75G: 0.
Turning to G30A A45C U67C, the self-cleavage is 0.1.
In the case of U31A A35U U54C A75U, the self-cleavage was 0.31.
As for G30A C62A U69C, the self-cleavage came out at 0.16.
Turning to C29U U31C A64U, the self-cleavage came to 0.21.
The result for G30U A65G U72C reads 0.12; that for G30A A64C A77U, 0.14.
The result for U31A A35U G53A A64G reads 0.25; that for C29G U41G U69C, 0.08; that for C29U A35U U66C, 0.16.
U31A A45G U67C: the self-cleavage was determined as 0.08.
As to C29U U67C U78C, the self-cleavage was 0.09.
With G30A U49C A65G, the self-cleavage stood at 0.13.
With C29G U48C U69C, the self-cleavage is 0.08.
U31A A35G A45G U80C: the self-cleavage was found to be 1.15.
For C29U C32U A35C, the self-cleavage was determined as 0.05.
Regarding G30A U48C U69C, the self-cleavage is 0.18.
On to C29U C40A U54C A65C, for which the self-cleavage was 0.13.
Take C29U A35G A45G U66C: the self-cleavage amounted to 0.43.
In the case of G30U A35U G52U U69A, the self-cleavage is 0.07.
The same measure for G30U U41C C50U U78C: 0.17.
The same measure for G30U A45U A75U: 0.1; for C29U U41A G46U: 0.12.
The same measure for G30A A77U U80A: 0.16.
As for G30A A65U A77G, the self-cleavage amounted to 0.14.
As to G30A U43G U72G A77G, the self-cleavage stood at 0.05.
The result for C29U A65G U67C U69C reads 0.13; that for G30A A45G U67A, 0.12; that for G30A C50A U51C U54C U72C, 0.08.
On to C29U A64G C81A, for which the self-cleavage turned out to be 0.18.
For C29U C40U U43C U58C, the self-cleavage is 0.23.
On to G30A U54A A56G U78C, for which the self-cleavage came out at 0.07.
With G30C U48C A57G, the self-cleavage stood at 0.13.
On to C29U U31C U54A U60A, for which the self-cleavage amounted to 0.1.
As for C29U U41C U60A G61A G70U, the self-cleavage was found to be 0.1.
The result for G30A U41C U54C U58A U69A reads 0.11; that for C29U A35G U41C G53A G73A, 1.25.
With G30A G52A U54C U67C U69C U80C, the self-cleavage came to 0.09.
As for G30U C40U U72A, the self-cleavage came to 0.11.
G30C U31A G33A U43C G52C G55C: the self-cleavage was found to be 0.07.
As for G30U U51A A57G U72C, the self-cleavage turned out to be 0.07.
The result for G30U U41C U49A U67C U80C reads 0.24.
Turning to C29U U54A U78C C81A, the self-cleavage is 0.56.
Consider C29U U31A A56G A75G, for which the self-cleavage is 0.12.
In the case of G30A U31C A45G C71G, the self-cleavage worked out at 0.15.
For the variant G30U A64G U72G, the self-cleavage is 0.12.
On to G30C U43C A56G U69C U72G, for which the self-cleavage turned out to be 0.05.
Consider C29U U66C U69C, for which the self-cleavage was determined as 0.11.
The result for G30A C34G C44U A64G U69A G73A reads 0.06; that for U31A A35G C40A U51A, 0.16; that for U31A A35G C40G U43C U69C U80C, 0.07.
With G30A U31A A56G, the self-cleavage worked out at 0.18.
Turning to C29U U48C G53A U80A, the self-cleavage came out at 0.44.
As to C29U U51C U78C U80C, the self-cleavage was 0.23.
